# Experimental data reported in PubChem BioAssay AID1476 (National Center for Advancing Translational Sciences (NCATS), 2009).
# Out of some 200,000 compounds screened, about 4,500 (2.2%) were called active. Inconclusive means that the source gave no clear call. Such entries were picked first, then a sample of the others. Calls follow the shape of the dose curve; as a rule, active = well fitted inhibition curve with a large enough effect; inconclusive = small, poorly fitted or top-dose-only effect, or effect the other way; inactive = flat fitted curve, though single readings scatter. Where the call is inconclusive, the potency comes from a doubtful curve fit.
# Target: Cruzipain (Trypanosoma cruzi) (UniProt P25779)
# Experiment: qHTS Assay for Promiscuous and Specific Inhibitors of Cruzain (without detergent); also: nearly all actives have a fitted effect of over 40% in size;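 as to max response, negative = inhibition: plate controls were enzyme without inhibitor for no effect and buffer without enzyme for full effect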
# Conditions: purified cruzain, Z-FR-AMC fluorescence, no detergent
# Outline: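 Detergent-free condition (0.00005% Triton X-100) in acetate buffer pH 5.5 with DTT. 1.5 nM enzyme and compound were pre-mixed 15 min, then 2 uM Z-FR-AMC substrate added; reaction progress from fluorescence change between first and third reads (60 s).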
# Potency is read from the fitted curve at half-maximal effect; tags tell the direction and shape of the fitted curve.
# Chain of UniProt P25779 (P25779 whole entry, looked up): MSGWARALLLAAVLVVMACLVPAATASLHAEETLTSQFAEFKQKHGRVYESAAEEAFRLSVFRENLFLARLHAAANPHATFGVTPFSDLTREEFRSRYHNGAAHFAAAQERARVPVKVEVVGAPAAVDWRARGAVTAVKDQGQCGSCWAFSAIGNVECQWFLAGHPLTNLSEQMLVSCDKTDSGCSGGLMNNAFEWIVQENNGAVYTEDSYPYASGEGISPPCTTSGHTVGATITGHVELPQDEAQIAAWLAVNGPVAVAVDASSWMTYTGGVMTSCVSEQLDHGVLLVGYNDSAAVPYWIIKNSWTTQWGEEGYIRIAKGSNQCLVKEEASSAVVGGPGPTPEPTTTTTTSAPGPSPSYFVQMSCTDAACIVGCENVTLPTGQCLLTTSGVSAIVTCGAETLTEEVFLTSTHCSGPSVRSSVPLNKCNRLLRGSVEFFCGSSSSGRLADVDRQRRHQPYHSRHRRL
Compound,Potency,"max response, negative = inhibition"
COc1ccc(-c2noc(CSc3ccccc3)n2)cc1OC,"inconclusive: 39.8 µM [activator, single point]",
N#Cc1c(C(F)(F)F)cc(-c2ccccc2)nc1SCCN1CCOCC1,"inconclusive: 39.8 µM [activator, single point]",
COc1ccc(-c2nc3cc(NC(=S)NC(=O)Cc4ccccc4)ccc3o2)cc1,"inconclusive: 39.8 µM [inhibitor, single point]",
CCc1cccc(NC(=O)CSc2nc3c(c(=O)[nH]2)CCCC3)c1,active: 25.1 µM,
Cc1ccc(S(=O)(=O)n2ccc(-c3cccc(OCc4c(F)cccc4Cl)c3)n2)cc1,active: 7.94 µM,
COc1cc(C2C3C(=O)N(c4ccccc4)C(=O)C3ON2c2ccccc2)cc(OC)c1OC (centres undefined),"inconclusive: 39.8 µM [activator, single point]",
c1cncc(N=c2scc(-c3cccc4ccccc34)n2CCCn2ccnc2)c1,"inconclusive: 39.8 µM [inhibitor, single point]",
C=Cn1ccnc1P(=S)(c1ccc(N(C)C)cc1)c1nccn1C=C,"inconclusive: 31.6 µM [activator, single point]",
Cc1cc(C)nc(N2CCCC(C(=O)Nc3ccc4nc(C)c(C)nc4c3)C2)n1 (centres undefined),"inconclusive: 31.6 µM [activator, single point]",
CC1CC2(CC(C)(C(=O)CSc3nc4ccccc4s3)OC2=O)C(=O)O1 (centres undefined),"inconclusive: 31.6 µM [inhibitor, single point]",
Cc1ccc(C)c(-c2nn(-c3cc(N4CCN(CCO)CC4)ccc3[N+](=O)[O-])c(=O)c3ccccc23)c1,"inconclusive: 39.8 µM [activator, single point]",
COCCNc1nnc(SC(C)C(=O)Nc2ccc(-c3nc4ccc(C)cc4s3)cc2)s1 (centres undefined),"inconclusive: 39.8 µM [activator, single point]",
COc1ccc2[nH]c3c(c2c1)CCN(C(=O)CCC1CCCC1)C3c1ccc(F)cc1 (centres undefined),"inconclusive: 15.8 µM [inhibitor, single point]",
CC(=O)Nc1ccc(NC(=O)c2ccc3c(c2)N(Cc2cccc(Cl)c2)C(=O)c2ccccc2S3=O)cc1 (centres undefined),,inactive: -10.5%
COCc1nc2ccccc2n1Cc1ccc(C(C)(C)C)cc1,"inconclusive: 39.8 µM [activator, single point]",
C=C1CCC(C2CC(=O)OC2=O)C(=O)CCC2C1CC2(C)C (centres undefined),"inconclusive: 25.1 µM [activator, single point]",
CCc1ccc(S(=O)(=O)Nc2cccc(-c3ccc(N4CCCCC4)nn3)c2)s1,"inconclusive: 39.8 µM [inhibitor, single point]",
O=C(CC(=O)NC1CCCCC1)N/N=C/c1cccc2ccccc12,"inconclusive: 39.8 µM [inhibitor, single point]",
CCC(=O)N[C@@H]1Cc2ccccc2[C@@H](c2ccccc2)C1,"inconclusive: 39.8 µM [activator, single point]",
N#CC1=C(N)C(C#N)(C#N)[C@H](c2ccncc2)[C@H]2CN(C(=O)OCc3ccccc3)CC=C12,"inconclusive: 39.8 µM [activator, single point]",
Cc1cc(C)c2nc3s/c(=C/c4ccccc4)c(=O)n3c2c1,,inactive: -17.7%

Compound,Potency,"max response, negative = inhibition"
CCn1cc(C(=O)NCc2ccco2)c(=O)c2cc(S(=O)(=O)N3CC(C)CC(C)C3)ccc21 (centres undefined),"inconclusive: 25.1 µM [activator, partial curve]",
Cc1cccc(C(=O)Nc2cc3c(cc2C)n(C)c(=O)n3C)c1,,inactive: 9.76%
CCc1ccccc1NC(=O)C1CCN(S(=O)(=O)c2cn(C)cn2)CC1,,inactive: -4.38%
Cc1cc(C)nc(-n2nc(C)c3c2N(Cc2ccccc2F)C(=O)CC3c2ccc(Cl)cc2)n1 (centres undefined),"inconclusive: 25.1 µM [activator, partial curve]",
COc1cccc(NC(=O)CCN2C(=O)c3ccccc3Sc3ncccc32)c1,,inactive: 21.5%
O=S(=O)(c1ccc(Cl)cc1)c1nc(-c2cccs2)oc1N1CCCCC1,,inactive: 16.2%
C=CCn1cc(C(=O)NCC2CCCO2)c(=O)c2cc(S(=O)(=O)N3CCCCCC3)ccc21 (centres undefined),"inconclusive: 31.6 µM [activator, single point]",
Cc1cccc(C(=O)Oc2ccccc2/C=N/Nc2ccc([N+](=O)[O-])cc2)c1,"inconclusive: 39.8 µM [inhibitor, single point]",
O=C(c1ccccc1)c1ccccc1N/C=C/c1nnnn1-c1ccccc1,"inconclusive: 31.6 µM [inhibitor, single point]",
c1ccc(N2CCN(c3ncnc4scc(-c5cccs5)c34)CC2)cc1,"inconclusive: 31.6 µM [inhibitor, single point]",
O=C(Nc1ccc(N2CCCC2)c(Cl)c1)c1ccc(Br)o1,active: 10 µM,
COC(=O)c1ccc(C(NC(=O)OCc2ccccc2)/C(C)=C/[C@@H](C)C(=O)N(C)Cc2cccnc2)cc1 (some centres undefined),"inconclusive: 39.8 µM [activator, single point]",
Cc1cccc(NC(=O)COC(=O)CNC(=O)C2CCCCC2)c1,active: 7.94 µM,
COc1ccc(C(=O)NCCC(C)C)cc1S(=O)(=O)N1CCOCC1,,inactive: 11.4%
CCC1CN(C(=O)N2CCC(C(=O)NCCc3ccc(OC)cc3OC)CC2)c2cc(C)ccc2O1 (centres undefined),,inactive: 16.1%
CCc1nnc(NC(=O)c2sc3nc4cc(C)ccc4cc3c2N)s1,"inconclusive: 25.1 µM [activator, single point]",
Cc1cc(Nc2ccc(Br)cc2)nc(C)n1,,inactive: -17%
O=C(Nc1ccc2c(c1)OCCO2)C1CCCN(S(=O)(=O)c2cccc3nsnc23)C1 (centres undefined),"inconclusive: 39.8 µM [inhibitor, single point]",
O=C(CC(NC(=O)C(F)(F)F)c1ccccc1)Nc1nnc(CCc2ccccc2)s1 (centres undefined),"inconclusive: 31.6 µM [inhibitor, single point]",
CC1Cc2ccccc2N1C(=O)CSc1nnc2c(n1)[nH]c1ccc(F)cc12 (centres undefined),"inconclusive: 31.6 µM [inhibitor, single point]",
COc1ccccc1/C=C1\S/C(=N/NC(=O)c2cccc(Br)c2)NC1=O,,inactive: -8.75%

Compound,Potency,"max response, negative = inhibition"
O=C1Cc2cc(S(=O)(=O)N3CCN(c4cccc(Cl)c4)CC3)ccc2N1,"inconclusive: 15.8 µM [inhibitor, partial curve, poor fit]",
Cc1ccc(-c2nc(CS(=O)CC(=O)NC3CCC(C)CC3)c(C)o2)cc1 (centres undefined),"inconclusive: 39.8 µM [activator, single point]",
O=C(Cc1ccc(-c2ccccc2)cc1)NCCS(=O)(=O)N1CCN(c2ccc(F)cc2)CC1,"inconclusive: 7.94 µM [inhibitor, single point]",
COc1cc(C(=O)Nc2cc(C(F)(F)F)ccc2N2CCOCC2)ccc1O,"inconclusive: 39.8 µM [activator, single point]",
Cc1nc(NC(=S)NC(=O)COc2ccc(Cl)cc2)ccc1Br,"inconclusive: 39.8 µM [inhibitor, single point]",
CC(C)(C)c1ccc(SCC(N)=O)cc1,,inactive: 13.9%
Cc1nn(C)c(C)c1S(=O)(=O)N(CC(=O)NCCCOC(C)C)c1ccc(C(C)C)cc1,"inconclusive: 20 µM [activator, partial curve]",
O=C(CSc1nnc(Nc2ccccc2)s1)Nc1cccnc1Cl,,inactive: -18%
C[C@@H]1CCC[C@H](C)N1,,inactive: -0.851%
O=C(O)C1=C/C(=C(/c2ccccc2)c2cc(C(=O)O)c(O)c3ccccc23)c2ccccc2C1=O,"inconclusive: 0.126 µM [activator, single point]",inactive: -3.25%
O=C(/C=C/c1ccc(Cl)cc1)NC(=S)Nc1ccc(CN2CCOCC2)cc1,"inconclusive: 39.8 µM [inhibitor, single point]",
Cc1ccc(CNC(=O)CSc2nc3c(sc4ccccc43)c(=O)n2CCCC(=O)NCCO)cc1,,inactive: 20.9%
CCN1C(C(=O)c2ccccc2)=C(OC(=O)COc2ccc(C)cc2)c2ccccc2S1(=O)=O,,inactive: -20.1%
COC(=O)c1ccc(N2C(=O)Cc3cc(OC)c(OC)cc3C2c2ccc(F)cc2)cc1 (centres undefined),"inconclusive: 39.8 µM [activator, single point]",
CCC(=O)N1CCc2cc(S(=O)(=O)NCCC(=O)N3CC=C(c4ccccc4)CC3)ccc21,"inconclusive: 39.8 µM [activator, single point]",
CCOC(=O)C1=NN(c2ccccc2)C2(S1)SC(C(C)=O)=C(C)N2c1ccccc1 (centres undefined),,inactive: 9.9%
COc1ccc(S(=O)(=O)Nc2cc(C(=O)NCCC(C)C)ccc2N2CCOCC2)cc1,"inconclusive: 39.8 µM [activator, single point]",
COC(=O)[C@@]1(Cc2ccccc2)[C@H]2c3cc(C(=O)N4CCCC4)n(CCSCCO)c3C[C@H]2CN1C(=O)c1ccccc1,"inconclusive: 15.8 µM [activator, partial curve]",
COc1ccccc1NC(=O)/C(C#N)=C/c1cc([N+](=O)[O-])ccc1N1CCCC1,"inconclusive: 31.6 µM [inhibitor, single point]",
C[C@@H]1NC(=O)[C@H](CC(N)=O)NC(=O)c2cc([N+](=O)[O-])cc(I)c2OCC[C@@H](C(=O)NC(CC(=O)O)C(N)=O)NC1=O (some centres undefined),"inconclusive: 39.8 µM [activator, single point]",
CC(NC(=O)/C(C#N)=C1\N=C(NC(=O)c2cccs2)c2ccccc21)c1ccccc1 (centres undefined),active: 15.8 µM,
